Molecules are shown by their SMILES. This is one part of the list.

The test system of the assay is S. aureus RN4220. The assay can be described thus: growth inhibition call (relative growth <= 0.2). The settings on record: 50 µM.
For the compound `C[C@@H]1CCCCO[C@H](CN(C)C(=O)Nc2ccc(C(F)(F)F)cc2)[C@H](C)CN([C@H](C)CO)C(=O)c2cc(NC(=O)Nc3cccc4ccccc34)ccc2O1`, the growth inhibition call is “inactive”. Next, `O=C(C[C@H]1CC[C@@H]2[C@H](COC[C@@H](O)CN2S(=O)(=O)c2ccccc2)O1)N[C@H]1CCN(Cc2ccccc2)C1`: “inactive”.

Turning to `O=C1C=C2CC3(O)COc4c(ccc(O)c4O)C3=C2C=C1O` (centres undefined), the growth inhibition call was “inactive”. As for `NCC(=O)O`, the entry is “inactive”.

In the case of `O=C(C[C@H]1C=C[C@@H](NC(=O)c2cccc(F)c2)[C@H](CO)O1)NCCN1CCCC1`, the growth inhibition call was “inactive”. `CC(C)(C)OC(=O)NC(=NCCn1cc(-c2cccc(/C=C/C(=O)NO)c2)nn1)NC(=O)OC(C)(C)C`: the growth inhibition call was “inactive”.

Turning to `C[C@@H]1CN([C@@H](C)CO)C(=O)c2cc(NC(=O)NC3CCCCC3)ccc2O[C@@H](C)CCCCO[C@H]1CN(C)C(=O)Nc1ccc2c(c1)OCO2`, the growth inhibition call was “inactive”.

As to `CC(C)NC(=O)N(C)C[C@@H]1Oc2ccc(NS(=O)(=O)c3cn(C)cn3)cc2CC(=O)N([C@H](C)CO)C[C@H]1C`, the growth inhibition call is “inactive”. Next, `COc1cccc(NC(=O)N[C@H]2C=C[C@@H](CC(=O)N3CCOCC3)O[C@H]2CO)c1`: “inactive”; `CCCCCCCCCCCC(=O)OCN1C(=O)CCc2ccc(OCCCCN3CCN(c4cccc(Cl)c4Cl)CC3)cc21`: “inactive”. Next, `C[C@H]1CCCCO[C@@H](CN(C)C(=O)Nc2ccccc2)[C@@H](C)CN([C@@H](C)CO)C(=O)c2cc(NC(=O)Nc3ccc(C(F)(F)F)cc3)ccc2O1`: “inactive”; `CC(C)C#Cc1ccc2c(c1)O[C@@H](CN(C)C(=O)c1cccc(F)c1)[C@H](C)CN([C@H](C)CO)S2(=O)=O`: “inactive”. For the compound `COc1cc(CO)cc(I)c1O[C@H]1C=C(C(=O)NCCO)C[C@@H](NC2CCCCCC2)[C@@H]1O`, the growth inhibition call is “inactive”. Turning to `Cc1cc2nc3c(=O)[nH]c(=O)nc-3n(CC(O)C(O)C(O)CO)c2cc1C` (centres undefined), the growth inhibition call is “inactive”. Turning to `C=CCOC(=O)[C@@H]1[C@H]2C(=O)O[C@H](c3ccccc3)[C@H](c3ccccc3)N2[C@H](c2ccc(OCCOC(=O)[C@H]3C[C@H]4C(=O)NCC(=O)N4[C@H]3c3ccc(O)cc3)cc2)[C@@]12C(=O)Nc1ccc(I)cc12`, the growth inhibition call is “inactive”. Next, `C[C@@H]1CN([C@@H](C)CO)S(=O)(=O)c2ccc(C3=CCCC3)cc2O[C@@H]1CN(C)C(=O)Cc1ccncc1`: “inactive”; `C[C@H](CO)N1C[C@H](C)[C@@H](CN(C)CC2CCCCC2)OCCCC[C@H](C)Oc2ccc(NS(=O)(=O)c3ccc(Cl)cc3)cc2C1=O`: “inactive”; `COc1ccc(S(=O)(=O)N(C)C[C@@H]2OCCCC[C@@H](C)Oc3ccc(NC(=O)Nc4cccc5ccccc45)cc3C(=O)N([C@@H](C)CO)C[C@H]2C)cc1`: “inactive”.

As to `C[C@H]1CCCCO[C@@H](CN(C)C(=O)c2ccccc2)[C@@H](C)CN([C@@H](C)CO)C(=O)c2cc(NC(=O)NC3CCCCC3)ccc2O1`, the growth inhibition call is “inactive”. Next, `Cc1noc(C)c1NC(=O)Nc1ccc2c(c1)C(=O)N([C@H](C)CO)C[C@@H](C)[C@@H](CN(C)Cc1ccccc1)OCCCC[C@@H](C)O2`: “inactive”; `Cc1noc(C)c1S(=O)(=O)Nc1ccc2c(c1)C(=O)N([C@@H](C)CO)C[C@@H](C)[C@H](CN(C)S(=O)(=O)c1ccc(F)cc1)O2`: “inactive”. Turning to `C[C@@H]1CN([C@H](C)CO)C(=O)c2cc(C#CCc3ccccc3)cnc2O[C@H]1CN(C)CC1CCOCC1`, the growth inhibition call was “inactive”. Next, `C[C@@H]1CN([C@@H](C)CO)C(=O)c2cc(NC(=O)C3CCCCC3)ccc2O[C@@H](C)CCCCO[C@H]1CN(C)C(=O)c1ccncc1`: “inactive”; `O=C(CN1CCOCC1)NCC[C@H]1CC[C@@H](NC(=O)Cc2ccccn2)[C@H](CO)O1`: “inactive”.

For the origin of these results see the antibiotic and cytotoxicity screens of Wong et al. (2023).
